Results from article PMC12136788.
The other results are listed elsewhere or left out.

T1: UNK ZnF1-3 (human, UniProt Q9C0B0 31-174)
T1 sequence: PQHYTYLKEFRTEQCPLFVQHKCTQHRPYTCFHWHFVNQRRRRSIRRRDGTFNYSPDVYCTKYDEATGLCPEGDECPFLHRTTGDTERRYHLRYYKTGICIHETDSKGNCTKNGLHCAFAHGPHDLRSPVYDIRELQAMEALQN

B1: chr22:19452774:19452775:-_ENSG00000070010_ENST00000399523|hu_hu|hu_hu_hu_mus_False|38_108 (ssRNA)
RNA: GGGAGUUCUACAGUCCGACGAUCCUUUUCAUUAUAGUUGAUAGCAAUCACAUCUCCAGUCGUCAGACAGGCGAAGUUUCUCAAUGCAUUUUCUAAUACGGCUUUGGGGUUGGUAAUAUCCAGGAAGUCUGGGCUCUGAGGCUGCAACAGAGGAUUGAGCAUCA
B2: chr10:33190432:33190433:-_ENSG00000150093_ENST00000302278|hu_mus|hu_hu_hu_mus_True|48_68 (ssRNA)
RNA: GGGAGUUCUACAGUCCGACGAUCUACAUUUUCCAAACCUGCAUGUGAAUAAAACCCUGGCCACAGAGCCCUAAAGCUACCCUACUGUGACUAUGGAGCUGCUGCUGUGAGCUUGGUGUUGCAAAAUCCGCCUGAGUAGGAUUCCAACAGAGGAUUGAGCAUCA
B3: chr7:4964383:4964384:-_ENSMUSG00000061374_ENSMUST00000077385|mus_hu|FALSE|FALSE (ssRNA)
RNA: GGGAGUUCUACAGUCCGACGAUCGCAGCGGUAGGGCCGCUCCCCGGUGUGCGAGCGCAGGUGGUUGGCUAGGUUGAAGCUGUGCUUGAAACCCUUGCCGCAGCGCGGACAUGCGUGGGGCUUGAGCGCUGUGUGCCGGGCAAACAACAGAGGAUUGAGCAUCA
B4: chr18:31598358:31598359:-_ENSMUSG00000024261_ENSMUST00000025110|mus_hu|motif|central (ssRNA)
RNA: GGGAGUUCUACAGUCCGACGAUCAUGCAUUUUUCAUAGAAUUUACAAACACUGUGAUAUCAAACACAUUCUCAAAAACUGCGGAAGUACUGACACAAAACCUGACUCAAAAUGUAAAUUUUUCAGUAGACUUAAUUUCUAACUCAACAGAGGAUUGAGCAUCA
B5: chrX:7701523:7701524:-_ENSMUSG00000031166_ENSMUST00000033506|mus_mus|motif|central (ssRNA)
RNA: GGGAGUUCUACAGUCCGACGAUCCAGGCAAGUGUGGGGUCCACCCAAACAGUAGCUGCCAAUGUUGGGGAGUUUGACAACCGGACCUGGUGAAAGCCCCGUGGUUGAACUUAACAUUCUGCACCUAAUUUCCCUACUGCUGUCCAACAGAGGAUUGAGCAUCA
B6: chr7:75932113:75932114:+_ENSG00000106211_ENST00000248553|hu_hu|hu_hu_hu_mus_False|8_58 (ssRNA)
RNA: GGGAGUUCUACAGUCCGACGAUCCUGCGACCACUCAUCGGGCAACCGGGGCACCCCGAAAGCUUGAUCGAAGAGGCGGCUAUGCGGAGGGUACCAGUCCCGGAAUGGUUCCCAGCUCGGGCUCCGCAGCGAGAAGGAGGGCACCAACAGAGGAUUGAGCAUCA

biological target: T1, UNK ZnF1-3; assay: nsRBNS (natural sequence RNA bind-n-seq); RBNS binding buffer (assumed for nsRBNS): 25 mM Tris pH 7.5, 150 mM KCl, 3 mM MgCl2, 0.01% Triton X-100, 500 ug/ml BSA, 20 U/ml SUPERase-In, 4 C; UNK is unkempt and MSI1 is Musashi-1; names of the RNAs are library labels; protein concentration not given here; high values mean tight binding

Binder | binding signal
B1 | 0.747 enrichment R
B2 | 0.941 enrichment R
B3 | 0.698 enrichment R
B4 | 0.984 enrichment R
B5 | 1.38 enrichment R
B6 | 1.89 enrichment R
